Test results reported in PubChem BioAssay AID488969 (Vanderbilt High Throughput Screening Facility, 2010).
In all, about 110,000 compounds were measured (“z-score”: median about -0.1, highest 2% from about 2 on). The list shows a part of the results. Activity calls are given as the source filed them.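 Rule for the calls: active = z-score in the third read window above 3 or below -3; inactive = the rest.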

Each compound was assayed against Metabotropic glutamate receptor 8 (Rattus norvegicus) (UniProt P70579) (assay: rat mGluR8 modulators via GIRK flux, primary screen, cell-based, thallium flux, HTS (AID 488969)). Details: HEK293 rat mGluR8, GIRK (G protein-gated inwardly rectifying potassium channel) thallium flux, FluoZin2; at 10 µM; stronger effect = higher value; submaximal glutamate (EC20) added with thallium.
Sequence of UniProt P70579 (P70579 whole entry, looked up): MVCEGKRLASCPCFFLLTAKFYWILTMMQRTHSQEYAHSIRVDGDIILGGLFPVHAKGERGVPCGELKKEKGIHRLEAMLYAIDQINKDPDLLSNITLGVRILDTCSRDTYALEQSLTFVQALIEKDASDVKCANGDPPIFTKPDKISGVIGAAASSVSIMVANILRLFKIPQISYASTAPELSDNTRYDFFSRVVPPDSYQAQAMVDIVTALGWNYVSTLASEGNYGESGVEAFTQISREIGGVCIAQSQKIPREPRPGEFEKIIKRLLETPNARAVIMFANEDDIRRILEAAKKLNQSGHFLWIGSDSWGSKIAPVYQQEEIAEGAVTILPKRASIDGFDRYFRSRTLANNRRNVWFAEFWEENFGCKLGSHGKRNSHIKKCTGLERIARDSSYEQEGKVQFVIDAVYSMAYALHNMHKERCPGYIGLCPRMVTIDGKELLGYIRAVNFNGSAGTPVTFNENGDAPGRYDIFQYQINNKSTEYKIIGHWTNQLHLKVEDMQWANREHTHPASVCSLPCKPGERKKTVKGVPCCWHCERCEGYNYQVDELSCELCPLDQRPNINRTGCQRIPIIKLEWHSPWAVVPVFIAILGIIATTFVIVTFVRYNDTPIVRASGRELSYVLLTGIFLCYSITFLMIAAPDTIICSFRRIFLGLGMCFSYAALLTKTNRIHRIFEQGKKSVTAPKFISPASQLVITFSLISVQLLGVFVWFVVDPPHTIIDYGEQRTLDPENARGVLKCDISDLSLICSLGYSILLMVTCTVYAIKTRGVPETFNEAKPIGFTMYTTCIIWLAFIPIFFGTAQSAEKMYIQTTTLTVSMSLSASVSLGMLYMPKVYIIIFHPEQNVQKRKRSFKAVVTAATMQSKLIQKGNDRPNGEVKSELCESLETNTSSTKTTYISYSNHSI

Compound	z-score
Nn1c(=O)c2ccccc2n2c(SCc3ccccc3)nnc12	-0.797
CCOc1ccc(NC(=O)C2CC(=O)N(CC)C(=Nc3ccc4c(c3)OCO4)S2)cc1 (stereo not given)	0.117
Cc1ccc(C(=O)N/C(=C/c2ccco2)C(=O)NCCc2c[nH]c3ccccc23)cc1	-0.603
Cc1ccc(C(=O)CSc2nsc(C)c2C#N)cc1	1.07
CCc1cccc(C)c1NC(=S)N1CCCC1C(=O)O (stereo not given)	-0.125
Cc1cc(Oc2ccccc2)nc(OCC#N)n1	0.0739
O=C1NCCCN1Cc1ccc(F)cc1	0.043
CCOC(=O)c1ccc(NC(=O)Nc2ccc(S(N)(=O)=O)cc2)cc1	0.256
COc1c(S(=O)(=O)N2CCCC2)ccc(Cl)c1Cl	-0.291
COc1cc(NC(=O)CS(=O)(=O)c2ccc(C)cc2)cc(OC)c1OC	active: 3.72
Cc1ccc(C(C)C)c(OCC(=O)NNC(=O)C(C(C)C)N2C(=O)c3ccccc3C2=O)c1 (stereo not given)	0.359
O=C(O)C1CC=CCC1C(=O)Nc1ccc2c(c1)OCCO2 (stereo not given)	0.0553
CN(C(=O)c1ccc(-c2nn(C)c(=O)c3ccccc23)cc1)c1ccccc1	-1.01
CNc1oc(Cc2ccccc2)nc1S(=O)(=O)c1ccccc1	-0.133
CC(C(=O)c1ccc(Br)cc1)[n+]1cccc(NC(=O)c2ccccc2)c1 (stereo not given)	0.0307
COc1ccc(CNc2nc3nc4c(c(=O)n3[nH]2)CCC4)cc1	-0.0479
O=C(CSc1nncn1-c1ccccc1)Nc1ccc(N2CCOCC2)cc1	-0.098
COc1cccc(NC(=O)Cn2c(=O)c3c(ncn3Cc3ccccc3)n(Cc3ccccc3)c2=O)c1	-0.215
COc1ccc(S(=O)(=O)NCC(c2cccnc2)N2CCN(c3ccc(F)cc3)CC2)cc1C (stereo not given)	-0.32
Cc1ccc(SCCc2ccc(C)nc2)cc1	-0.479
CCCn1c(C)cc(/C=C(\C#N)C(=O)O)c1C	-0.201
Cc1ccc(-c2cn3cc([N+](=O)[O-])ccc3n2)cc1	-0.329
CC1(C)N=C(N)N=C(N)N1c1cccc(C(=O)O)c1	-0.141
CCCOC(=O)C1=C(C)NC2=C(C(=O)C(C(=O)OC)C(C)C2)C1c1ccc(N(CC)CC)cc1 (stereo not given)	0.971
CCOc1ccc(C(=O)OCCN(CC)CC)cc1	0.374
O=C1CN(C(=O)COC(=O)c2cccc(OCc3ccccc3)c2)c2ccccc2N1	0.176
COC(=O)c1cc(C(=O)OC)cc(S(=O)(=O)Nc2ccc(Cl)c(N)c2)c1	0.237
CC1CCCN(Cc2cccc(Oc3ccccc3)c2)C1 (stereo not given)	active: 6.29

Compound	z-score
CCOc1ccc(CCN2C(=O)C3C4C=CC(C4)C3C2=O)cc1OCC (stereo not given)	-0.444
O=C(c1ccc(S(=O)(=O)N2CCOCC2)cc1)N(Cc1ccco1)Cc1cccs1	0.686
CN(C)c1ccc(C2SCCN2C(=O)c2ccc([N+](=O)[O-])cc2)cc1 (stereo not given)	0.113
CCCCOC(=O)C1Cc2ccccc2C(=O)O1 (stereo not given)	-0.249
COc1ccccc1NC(=O)N1CCCC(c2nc3c(nnn3Cc3ccc(C)cc3)c(=O)[nH]2)C1 (stereo not given)	-0.291
CC1=C(C(=O)OC(C)C)C(c2cccc(F)c2)n2ncnc2N1 (stereo not given)	-1.89
CCOC(=O)c1c(NC(=O)/C=C/c2ccc(C)o2)sc(C)c1C	-0.165
Cn1cc(C(=O)c2ccc(Cl)cc2)cc1-c1nc2ccccc2n1C	0.0685
COc1ccccc1OCc1ccc(C(=O)N2CCN(C)CC2)o1	-0.219
COc1cccc(CNC(=O)C2(C)Oc3ccccc3NC2=O)c1 (stereo not given)	-0.3
NC(=O)c1cc(-c2ccccc2)nc(Oc2ccccc2)n1	-0.386
Cn1c(=O)[nH]c(=O)c2c1nc(NC1CCCCC1)n2Cc1ccccc1	0.331
Cc1ccc(-c2csc3ncnc(Oc4cccc5ccc(C)nc45)c23)cc1	-0.213
CN(C)CCSc1nc(-c2ccccc2)nc2c1CCC2	-0.0489
CCN(CC)CCOC(=O)C1c2ccccc2Oc2ccccc21	-0.0952
Cc1ccc(C(=O)NCCN2CCOCC2)cc1Cl	-0.395
CC(C)Sc1nnc2n(CCc3ccccc3)c(=O)c3c4c(sc3n12)COC(C)(C)C4	-0.427
COc1ccc(C(=O)O/N=C/c2ccc(S(=O)c3ccc(Cl)cc3)nc2)cc1 (stereo not given)	-0.37
O=S(=O)(c1ccccc1)N1CCC(O)(CSc2ccc(Cl)cc2)CC1	-0.106
COC(=O)c1ccccc1NC(=O)CN(c1cc(OC)ccc1OC)S(C)(=O)=O	0.00471
CCn1c(SCC(=O)Nc2cc3oc4ccccc4c3cc2OC)nnc1-c1cccs1	-0.181
CCOc1ccc(S(=O)(=O)NCCC(=O)NCc2ccco2)cc1	-0.667
Cc1ccc(SCc2[nH]nc3c2C2(CCSCC2)C(C#N)=C(N)O3)cc1	-0.136
Cc1nnc(N(Cc2ccccc2)C(=O)c2cnccn2)s1	0.0216
Cc1cc(=O)n(CCCO)c(O)c1C#N	-0.271
CCCC[n+]1c(-c2ccc(Cl)cc2Cl)csc1Nc1ccccc1	0.203
CC1=C(C(=O)OCC2CCCO2)C(c2ccncc2)C2=C(CC(C)(C)CC2=O)N1 (stereo not given)	0.671
